Source: PubChem BioAssay AID938 (National Center for Advancing Translational Sciences (NCATS), 2007)
Among all 73,000 compounds or so, about 1,800 (2.5%) were called active. Not shown: some 13% with an inconclusive outcome. Calls follow the shape of the dose curve; as a rule, active = well fitted activation curve with a large enough effect; inconclusive = small, poorly fitted or top-dose-only effect; inactive = no such curve, though single readings can be large or run the other way. This is a selection; strong and weak results do not stand in their true shares. Some structures have more than one record in an assay (separate samples or runs), and their calls can disagree.

Assay: qHTS Assay for Agonists of the Thyroid Stimulating Hormone Receptor: Activators of Intracellular cAMP Concentrations in Parental HEK 293; also: nearly all actives have a fitted effect of over 55% in size; as to activation: % of control where 0% means no effect
Conditions: parental HEK293 CNG cAMP sensor, membrane potential fluorescence; series mostly up to 57.1 µM; activation: at the top concentration
Description: NIH Chemical Genomics Center [NCGC]
NIH Molecular Libraries Screening Centers Network [MLSCN]
PI Name: Dr. Marvin Gershengorn
This cell based assay utilized a cyclic nucleotide gated ion channel (CNG) as a biosensor for cAMP induction. HEK 293 cells stably expressing the modified CNG were purchased from BD biosciences (http://www.atto.com/products/actone/features_benefits.shtml) . Stimulation of cAMP production causes the CNG to open and subsequent membrane depolarization to occur. A fluorescent membrane potential dye (BD biosciences) was utilized to detect cAMP stimulation in cells.
The cells were maintained in DMEM medium (Invitrogen) containing 10 % FBS (Hyclone), 100 units/ml Penicillin, 100 ug/ml Streptomycin (Invitrogen), and 250 ug/ml Geneticin (Invitrogen) and 1 ug/ml Puromycin (Invitrogen) at 37C in 5% CO2. This assay was used as a counterscreen to "qHTS Assay for Agonists of the Thyroid Stimulating Hormone Receptor", to control for compounds signaling through endogenous receptors and other targets of HEK 293 cells.
NCGC Assay Protocol Summary:
High Throughput Screening. Freshly passaged cells were dispensed into 1536-well assay plates at 4 ul/well in DMEM containing phenol red (Invitrogen), 10% FCS (Hyclone), and 100 units/ml Penicillin, 100 ug/ml Streptomycin (Invitrogen) and incubated at 37 C with 5% CO2 for 20 to 36 hrs before the robotic screening. The screen was initiated by addition of 4 ul/well membrane potential dye containing 100 uM RO 20-1724 (Sigma Aldrich), followed by 60 min incubation at room temperature to allow for dye equilibration across the cell membrane. 23 nl/well compound or control was then added to the assay plates, which were incubated for additional 30 min before reading a Envision fluorescence plate reader (Perkin Elmer) in bottom-read mode for fluorescence intensity (emission at 590 nm).
Keywords: cAMP, CNG Ion Channel, quantitative high throughput screening, qHTS, HTS, probe identification, CNG, cAMP, cyclic nucleotide gated ion channel PubChem
Potency is read from the fitted curve at half-maximal effect.

Row | SMILES | Potency | activation
1 | NCC(O)c1ccc(O)cc1 (stereo not drawn) | inactive | 
2 | C[C@]12N[C@@H](Cc3ccccc31)c1ccccc12 | inactive | 
3 | CC(O)CCl (stereo not drawn) |  | inactive: -11.8%
4 | O=C(C1CCCCC1)N1CCC(c2nc3c(nnn3Cc3c(F)cccc3Cl)c(=O)[nH]2)CC1 |  | inactive: -43.9%
5 | N#CC(C#N)=Cc1ccc(O)c(O)c1 |  | inactive: 51.8%
6 | Cc1cc(C)c(N)cc1C |  | inactive: 41.7%
7 | Fc1ccc(C(OCCN2CCN(C/C=C\c3ccccc3)CC2)c2ccc(F)cc2)cc1 |  | inactive: -30.9%
8 | O=c1[nH]c2c(c(=O)n1C1CCCCC1)CCC2 |  | inactive: -55.6%
9 | O=C(NC[C@@H]1CCCCN1)c1cc(OCC(F)(F)F)ccc1OCC(F)(F)F |  | inactive: 11.6% [at 25.6 µM]
10 | COc1cc2c(c(OC)c1OC)-c1ccc(OC)c(=O)cc1[C@H](NC(C)=O)CC2 | inactive | 
11 | NC(N)=Nc1ccc2[nH]c3c(c2c1)C[C@]1(O)[C@@H]2Cc4ccc(O)c5c4[C@]1(CCN2CC1CC1)[C@@H]3O5 |  | inactive: 0.177%
12 | CC(C)c1ccc2c(c1)CC[C@@H]1[C@@](C)(CN)CCC[C@@]21C |  | inactive: -30.1%
13 | CCCCCCC(C)(C)c1ccc([C@@H]2C[C@H](O)CC[C@@H]2CCCO)c(O)c1 |  | inactive: 27.2%
14 | C=CC(=O)NCNC(=O)C=C |  | inactive: -8.55%
15 | C/C=C\c1ccc(OC)cc1 |  | inactive: -0.0034%
16 | CCN(CC)C(=O)N[C@H]1C=C2c3cccc4[nH]cc(c34)C[C@@H]2N(C)C1 |  | inactive: 6.28% [at 25.6 µM]
17 | C[C@]12CC[C@H](O)C[C@@H]1CC[C@H]1[C@H]2CC[C@]2(C)C(=O)CC[C@@H]12 | inactive | 
18 | CC(C)(COCC1CO1)COCC1CO1 (stereo not drawn) |  | inactive: -0.834%
19 | NCC(CC(=O)O)c1ccc(Cl)cc1 (stereo not drawn) |  | inactive: -1.1%
20 | CN(c1ccccc1)S(=O)(=O)c1cccc(C(=O)N2CCN(c3ccccn3)CC2)c1 | active: 15.8 µM | 
21 | NC[C@H](CC(=O)O)c1ccc(Cl)cc1 |  | inactive: 2.83%

Row | SMILES | Potency | activation
22 | Oc1ccc2[nH]cc(CCCCN3CC=C(c4ccccc4)CC3)c2c1 |  | inactive: -65.5%
23 | C=C(C)[C@H]1CN[C@H](C(=O)O)[C@@H]1CC(=O)O |  | inactive: 8.38%
24 | N[C@@H](CP(=O)(O)O)C(=O)O |  | inactive: -0.232% [at 11.4 µM]
25 | O=C(O)CBr |  | inactive: -21.4%
26 | COc1ccc2c(c1OC)C(=O)O[C@H]2[C@H]1c2cc3c(cc2CCN1C)OCO3 | inactive | 
27 | ClC(Cl)=C(Cl)Cl | inactive | 
28 | CC(C)(C)c1cc(C=C(C#N)C#N)cc(C(C)(C)C)c1O | active: 0.794 µM | 
29 | COc1ccc2c(c1OC)C(=O)O[C@@H]2[C@H]1c2cc3c(cc2CCN1C)OCO3 |  | inactive: 25.1%
30 | O=C(O)c1nn(Cc2ccc(Cl)cc2Cl)c2ccccc12 |  | inactive: 3.5%
31 | C=CCN1CC[C@@]23c4c5ccc(O)c4O[C@H]2/C(=N\N=C2/CC[C@@]4(O)[C@H]6Cc7ccc(O)c8c7[C@@]4(CCN6CC=C)[C@@H]2O8)CC[C@]3(O)[C@@H]1C5 |  | inactive: 4.73%
32 | Cc1cc(-c2cc(C)c(N)c(C)c2)cc(C)c1N |  | inactive: -4.21%
33 | N[C@@H](CCP(=O)(O)O)C(=O)O | inactive | 
34 | CC[C@@H]1[C@@H]2C[C@H]3[C@H]4N(C)c5ccccc5[C@@]45C[C@@H]([C@@H]2[C@@H]5O)N3[C@H]1O |  | inactive: 7.69% [at 25.6 µM]
35 | C=CCc1ccc(OC)cc1 |  | inactive: 11.1%
36 | Cc1ccccc1 | inactive | 
37 | O=C(CCCN1CCC2(CC1)C(=O)NCN2c1ccccc1)c1ccc(F)cc1 | inactive | 
38 | NC[C@H](O)c1ccc(O)cc1 |  | inactive: 4.67% [at 25.6 µM]
39 | Nc1ccc(Cl)cc1N |  | inactive: -5.5%
40 | CC[C@H]1CN2CC[C@@H]1C[C@H]2[C@@H](O)c1ccnc2ccc(OC)cc12 |  | inactive: 16.3% [at 25.6 µM]
41 | C[C@@H]1O[C@@H](O[C@H]2C[C@@H](O)[C@]3(CO)[C@@H]4[C@@H](O)C[C@]5(C)[C@H]([C@@H]6COC(=O)C6)CC[C@@]5(O)[C@H]4CC[C@@]3(O)C2)[C@H](O)[C@H](O)[C@@H]1O | active: 25.1 µM | 
42 | O=C1C2CC=CCC2C(=O)N1SC(Cl)(Cl)Cl (stereo not drawn) | inactive | 

Row | SMILES | Potency | activation
43 | Cc1ccc2c(c1N)C(=O)c1ccccc1C2=O |  | inactive: -50.7%
44 | Cc1nc(-c2ccc(-c3ccc(C(=O)N4CCc5cc6c(cc54)C4(CCN(C)CC4)CO6)cc3)c(C)c2)no1 |  | inactive: -9.66%
45 | CC(C)c1cccc(C(C)C)c1O | inactive | 
46 | CN1[C@H]2CC(OC(=O)[C@@H](CO)c3ccccc3)C[C@H]1[C@H]1O[C@H]12 (stereo partly drawn) |  | inactive: 8.99% [at 25.6 µM]
47 | COc1ccc2c(c1OC)C(=O)OC2C1c2cc3c(cc2CCN1C)OCO3 (stereo not drawn) |  | inactive: 8.04%
48 | c1ccc(C2CO2)cc1 (stereo not drawn) |  | inactive: 7.95%
49 | c1ccc(Nc2ccc(Nc3ccccc3)cc2)cc1 |  | inactive: -54.3%
50 | Clc1nc(Cl)nc(Nc2ccccc2Cl)n1 |  | inactive: -22.4%
51 | CCCCC(CC)COC(=O)c1ccc(C(=O)OCC(CC)CCCC)c(C(=O)OCC(CC)CCCC)c1 (stereo not drawn) |  | inactive: -12%
52 | CO |  | inactive: -29.5%
53 | CCCN(CCC)[C@H]1CCc2c(F)ccc(O)c2C1 |  | inactive: 13.7%
54 | Cc1ccc(N)c([N+](=O)[O-])c1 |  | inactive: -20.5%
55 | c1ccc(Nc2cccc3ccccc23)cc1 |  | inactive: 5.22%
56 | COc1cc2c(c(OC)c1OC)-c1ccc(OC)c(=O)cc1[C@@H](NC(C)=O)CC2 | inactive | 
57 | Clc1cccc(C(Cl)(Cl)Cl)n1 |  | inactive: 25.6%
58 | CCCCc1ccc(C(=O)O)nc1 | inactive | 
59 | CC(C#N)CCC#N (stereo not drawn) |  | inactive: -10.7%
60 | NC(N)=S |  | inactive: 18.3%
61 | c1cc2ccc3cccc4ccc(c1)c2c34 |  | inactive: 41.4%
62 | OCCCBr |  | inactive: 3.42%
63 | NC(=NCCC[C@H](N)C(=O)O)N[N+](=O)[O-] |  | inactive: 3.91%
